Source: PubChem BioAssay (NCATS)
The inconclusive results got no clear call from the source; some entries with a clear call stand among them for comparison. For some assays here: Potencies of inconclusive entries are doubtful fits and often do not repeat. For some assays here: A note “side channel” means that the fit belongs to a control or component signal, not to the main read-out. Calls of active or inactive are those of the source. Unless noted, the call rests on the fitted dose curve.

Legend:
[1] = target: Bile acid receptor (Homo sapiens) (UniProt Q96RI1); assay: qHTS assay for small molecule antagonists of farnesoid X receptor signaling (AID 588526); conditions: HEK293T FXR-UAS-bla, beta-lactamase ratio, antagonist mode; activity change, negative = inhibition: at 76.7 µM (top of the series); further: potency means the concentration at half of the fitted maximal effect; on activity change, negative = inhibition: on the % scale 0 is the no-effect control and ±100 the full control effect
Summary of the method: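 Concentration-response titrations were fitted to the Hill equation for half-maximal inhibition and maximal response, with data normalised to 50 uM chenodeoxycholic acid and DMSO control wells. Cells: FXR-UAS-bla HEK293T, dialyzed FBS.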

[2] = target: Bile acid receptor (Homo sapiens) (UniProt Q96RI1); assay: qHTS assay for small molecule agonists of farnesoid X receptor signaling (AID 588527); conditions: HEK293T FXR-UAS-bla, beta-lactamase ratio, 16 h; activation: stronger effect = higher value; further: potency means the concentration at half of the fitted maximal effect
Summary of the method: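 FXR-UAS-bla HEK293T cells (10% dialyzed FBS) preincubated 5-7 h at 37 C, then compounds at up to 92 uM for 16 h at 37 C. CCF4 beta-lactamase read-out after 2 h RT. Normalized to chenodeoxycholic acid (100 uM) and DMSO; Hill fit gave EC50 and efficacy.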

[3] = target: Peroxisome proliferator-activated receptor delta (Homo sapiens) (UniProt Q03181); assay: qHTS assay for small molecule agonists of peroxisome proliferator-activated receptor delta signaling (AID 588534); conditions: HEK293T PPARdelta-UAS-bla, beta-lactamase ratio, 18 h; activation: at 76.7 µM (top of the series) unless noted; further: potency means the concentration at half of the fitted maximal effect
Summary of the method: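 Agonist-mode beta-lactamase reporter readout (CCF4 dye, 2 h at RT) after 18 h at 37 °C exposure to a titration; Hill-equation fitting gave EC50 and maximal response.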

[4] = target: Peroxisome proliferator-activated receptor delta (Homo sapiens) (UniProt Q03181); assay: qHTS assay for small molecule antagonists of peroxisome proliferator-activated receptor delta signaling (AID 588535; active means well fitted inhibition curve with a large enough effect in the signal ratio, with a control signal flat, not every such curve was filed as active; inconclusive means small, poorly fitted or top-dose-only effect, or effect the other way, or a change in a side signal; inactive means no such curve, though single readings can be large or run the other way; the % refers to the signal ratio; further: potency means the concentration at half of the fitted maximal effect); conditions: HEK293T PPARd-UAS-bla, beta-lactamase FRET ratio, 18 h; activity change, negative = inhibition: at 76.7 µM (top of the series) unless noted
Summary of the method: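 Inhibition of PPAR-delta response element-driven beta-lactamase expression is measured in HEK293T cells exposed to a compound titration series for 18 hrs at 37 C. Half-maximal inhibition comes from Hill equation fitting.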

[5] = target: Peroxisome proliferator-activated receptor gamma (Homo sapiens) (UniProt P37231); assay: qHTS assay for small molecule antagonists of peroxisome proliferator-activated receptor gamma signaling (AID 588537; active means well fitted inhibition curve with a large enough effect in the signal ratio, with a control signal flat, not every such curve was filed as active; inconclusive means small, poorly fitted or top-dose-only effect, or effect the other way, or a change in a side signal; the % refers to the signal ratio; further: potency means the concentration at half of the fitted maximal effect;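 further: reporter cells co-stimulated with 50 nM rosiglitazone agonist during compound treatment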; on activity, negative = inhibition: % of control where 0% means no effect); conditions: HEK293 PPARg-UAS-bla, beta-lactamase ratio, antagonist mode; activity, negative = inhibition: at 76.8 µM (top of the series) unless noted
Summary of the method: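 Compounds are tested as concentration series for inhibition of rosiglitazone-driven (50 nM) reporter expression in GeneBLAzer PPAR-gamma-UAS-bla HEK293 cells. After 16 h at 37 C, CCF4 substrate is added for 2 h at room temperature and blue/green fluorescence is measured.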

[6] = target: Vitamin D3 receptor (Homo sapiens) (UniProt P11473); assay: qHTS assay for small molecule antagonists of vitamin D receptor signaling (AID 588541); conditions: HEK293T VDR-UAS-bla, beta-lactamase ratio, antagonist mode; activity change, negative = inhibition: at 76.7 µM (top of the series); further: potency means the concentration at half of the fitted maximal effect
[7] = target: Retinoic acid receptor RXR-alpha (Homo sapiens) (UniProt P19793); assay: qHTS assay for small molecule agonists of retinoid X receptor alpha signaling (AID 588544); conditions: HEK293T RXRa-UAS-bla, beta-lactamase reporter, 18 h; activation: at 76.7 µM (top of the series); further: potency means the concentration at half of the fitted maximal effect
[8] = target: Thyroid hormone receptor beta (Homo sapiens) (UniProt P10828); assay: qHTS assay for small molecule agonists of thyroid hormone receptor beta signaling (AID 588545); conditions: TR-UAS-bla GripTite HEK 293, beta-lactamase ratio, agonist mode, 18 h; activation: at 76.7 µM, percent of T3 response, DMSO as zero; further: potency means the concentration at half of the fitted maximal effect
Summary of the method: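 Agonist-mode beta-lactamase reporter assay, HEK 293 cells, 2% charcoal/dextran FBS; cells plated 4 hrs, compound 18 hrs at 37 C, CCF4 2 hrs RT. Normalized to 10 nM T3 (100%) and DMSO (0%); Hill fit gives EC50, efficacy.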

[9] = target: Retinoic acid receptor RXR-alpha (Homo sapiens) (UniProt P19793); assay: qHTS assay for small molecule antagonists of retinoid X receptor alpha signaling (AID 588546; active means well fitted inhibition curve with a large enough effect in the signal ratio, with a control signal flat, not every such curve was filed as active; inconclusive means small, poorly fitted or top-dose-only effect, or effect the other way, or a change in a side signal; inactive means no such curve, though single readings can be large or run the other way; the % refers to the signal ratio; further: potency means the concentration at half of the fitted maximal effect); conditions: HEK293T RXRa-UAS-bla, beta-lactamase ratio, antagonist mode
Summary of the method: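 Beta-lactamase reporter inhibition, read as CCF4 fluorescence ratio (ex 405, em 460/530 nm) after 2 h at RT. HEK293T UAS-bla cells, 2500/well, were stimulated with 9-cis-RA at 500 or 100 nM final alongside test compound for 18 h at 37 C.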

[10] = target: Thyroid hormone receptor beta (Homo sapiens) (UniProt P10828); assay: qHTS assay for small molecule antagonists of thyroid hormone receptor beta signaling (AID 588547; active means well fitted inhibition curve with a large enough effect in the signal ratio, with a control signal flat, not every such curve was filed as active; inconclusive means small, poorly fitted or top-dose-only effect, or effect the other way, or a change in a side signal; the % refers to the signal ratio; further: potency means the concentration at half of the fitted maximal effect;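 on activity change % (negative = inhibition): cells stimulated with 0.4 nM T3 agonist during compound exposure; on the % scale 0 is the no-effect control and ±100 the full control effect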); conditions: TR-UAS-bla HEK293, beta-lactamase ratio, antagonist mode, 18 h
Summary of the method: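 TR-UAS-bla GripTite HEK293 cells in 2% charcoal/dextran FBS medium were preincubated 4 h at 37 C, given compound (0.59 nM to 92 uM) plus 0.4 nM T3 (final) for 18 h, then CCF4 for 2 h at RT; Hill fit gave IC50.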

[11] = qHTS assay for small molecule activators of the nuclear factor-kappa B (NF-kB) signaling pathway (AID 651749; active means well fitted activation curve with a large enough effect in the signal ratio; inconclusive means small, poorly fitted or top-dose-only effect, or a change in a side signal; the % refers to the signal ratio; further: potency means the concentration at half of the fitted maximal effect); conditions: NF-kB-bla ME-180 cells, beta-lactamase FRET ratio, 16 h; activation: stronger effect = higher value
Summary of the method: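 Human ME-180 cervical cells with an NF-kB-bla construct; compounds added via 23 nL pin transfer, DMSO as vehicle; incubation 16 hr. Reporter activity measured by FRET disruption.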

[12] = qHTS assay for small molecule agonists of the antioxidant response element (ARE) signaling pathway measured by Nrf2-dependant transcriptional activity (AID 720636; active means well fitted curve in the direction sought with a large enough effect in the repeat runs; inconclusive means weak or mixed curves; inactive means no such curve, though single readings can be large; an effect the other way counts as inactive or inconclusive; further: potency means the concentration at half of the fitted maximal effect)
Summary of the method: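 First, ARE-luc HepG2 cells attached for 6 hr at 37 C in 1% dialyzed FBS medium. Next, compound or DMSO was added and incubated 16 hr. Finally, ONE-Glo reagent was added and luminescence measured after 30 min.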

[13] = qHTS assay for cell viability of the p53RE-bla HCT-116 cell line (AID 743292; active means well fitted curve in the direction sought with a large enough effect; inconclusive means small, poorly fitted or top-dose-only effect, or another doubt; inactive means no such curve, though single readings can be large; an effect the other way counts as inactive or inconclusive; further: potency means the concentration at half of the fitted maximal effect; nearly all actives have a fitted effect of over 55% in size)
Summary of the method: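 Quantitative high-throughput format: compounds in DMSO were pinned onto p53RE-bla HCT-116 cells (4,000/well) and incubated 16 h at 37 C. Total intracellular ATP, read by CellTiter-Glo luminescence, reflects viable cell number.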

[14] = target: Vitamin D3 receptor (Homo sapiens) (UniProt P11473); assay: qHTS assay for small molecule agonists of vitamin D receptor signaling (AID 588543); conditions: HEK293T VDR-UAS-bla, beta-lactamase ratio, 16 h; activation: at 76.8 µM (top of the series);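 further: 0% = DMSO basal and 100% = reference agonist control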
Summary of the method: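 qHTS in agonist mode: compound titrations stimulate a VDR-driven β-lactamase reporter in HEK293T cells over 16 h at 37 °C. Response normalized to 50 nM 1α,25-dihydroxyvitamin D3 = 100%, DMSO = 0%; Hill fitting gives EC50 and maximal response.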
Tags describe the fitted curve by direction and shape or compound fluorescence and quenching.

Chain of UniProt P10828 (P10828 whole entry, looked up): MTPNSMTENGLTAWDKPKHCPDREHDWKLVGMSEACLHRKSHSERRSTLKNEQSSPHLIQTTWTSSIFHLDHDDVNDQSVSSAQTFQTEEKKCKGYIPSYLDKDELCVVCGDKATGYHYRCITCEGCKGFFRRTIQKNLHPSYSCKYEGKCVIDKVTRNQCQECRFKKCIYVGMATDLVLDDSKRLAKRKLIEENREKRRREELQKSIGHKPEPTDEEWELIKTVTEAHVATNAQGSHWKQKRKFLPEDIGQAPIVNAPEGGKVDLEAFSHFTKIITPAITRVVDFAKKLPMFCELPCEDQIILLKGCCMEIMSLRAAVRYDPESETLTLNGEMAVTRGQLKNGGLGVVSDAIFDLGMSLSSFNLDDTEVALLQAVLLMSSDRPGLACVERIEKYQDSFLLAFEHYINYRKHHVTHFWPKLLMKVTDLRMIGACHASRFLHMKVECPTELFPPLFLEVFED
Chain of UniProt Q03181 (Q03181 whole entry, looked up): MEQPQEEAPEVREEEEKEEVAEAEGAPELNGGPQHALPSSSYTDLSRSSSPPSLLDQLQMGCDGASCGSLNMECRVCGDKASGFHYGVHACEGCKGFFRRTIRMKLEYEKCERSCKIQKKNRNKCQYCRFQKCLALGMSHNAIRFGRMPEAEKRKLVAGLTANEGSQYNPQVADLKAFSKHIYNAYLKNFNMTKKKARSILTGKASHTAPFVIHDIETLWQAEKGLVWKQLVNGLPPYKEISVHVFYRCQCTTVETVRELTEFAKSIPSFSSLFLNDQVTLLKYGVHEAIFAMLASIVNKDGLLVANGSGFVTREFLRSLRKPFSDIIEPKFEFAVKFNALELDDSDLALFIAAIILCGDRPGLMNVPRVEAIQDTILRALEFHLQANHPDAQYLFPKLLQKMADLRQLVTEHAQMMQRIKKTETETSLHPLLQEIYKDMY
Chain of UniProt P19793 (P19793 whole entry, looked up): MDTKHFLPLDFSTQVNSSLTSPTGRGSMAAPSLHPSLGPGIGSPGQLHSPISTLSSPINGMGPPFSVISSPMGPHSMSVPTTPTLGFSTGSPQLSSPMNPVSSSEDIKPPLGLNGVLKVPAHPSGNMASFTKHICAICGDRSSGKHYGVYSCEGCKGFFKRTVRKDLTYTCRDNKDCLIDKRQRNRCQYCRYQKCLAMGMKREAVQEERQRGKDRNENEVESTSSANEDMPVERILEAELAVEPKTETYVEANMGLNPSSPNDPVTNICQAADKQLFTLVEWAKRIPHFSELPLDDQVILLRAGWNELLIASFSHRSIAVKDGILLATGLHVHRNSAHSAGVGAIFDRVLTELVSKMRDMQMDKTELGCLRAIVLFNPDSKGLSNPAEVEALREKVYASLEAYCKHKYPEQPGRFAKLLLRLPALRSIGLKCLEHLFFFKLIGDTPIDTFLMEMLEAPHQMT
Chain of UniProt P11473 (P11473 whole entry, looked up): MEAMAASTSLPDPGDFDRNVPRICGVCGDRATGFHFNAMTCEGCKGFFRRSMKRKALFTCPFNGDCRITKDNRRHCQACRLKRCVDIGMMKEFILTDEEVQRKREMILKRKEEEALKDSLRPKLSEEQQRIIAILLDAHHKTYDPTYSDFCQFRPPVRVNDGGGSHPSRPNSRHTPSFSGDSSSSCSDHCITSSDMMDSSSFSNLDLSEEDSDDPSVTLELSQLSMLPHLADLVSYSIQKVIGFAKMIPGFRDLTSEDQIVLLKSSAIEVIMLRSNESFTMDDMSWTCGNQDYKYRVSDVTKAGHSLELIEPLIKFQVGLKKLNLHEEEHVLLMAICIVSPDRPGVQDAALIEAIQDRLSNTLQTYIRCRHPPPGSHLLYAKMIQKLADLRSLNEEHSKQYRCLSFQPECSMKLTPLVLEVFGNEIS

Compound	Potency [1]	Potency [2]	Potency [3]	Potency [4]	Potency [5]	Potency [6]	Potency [7]	Potency [8]	Potency [9]	Potency [10]	Potency [11]	Potency [12]	Potency [13]	Potency [14]	activity change % (negative = inhibition) [10]
C=CC(=O)OCCOCC(CC)(COCCOC(=O)C=C)COCCOC(=O)C=C	inconclusive: 44.7 µM [side channel, rising, single point]	inconclusive: 25.1 µM [activator, partial curve]	inconclusive: 31.6 µM [side channel, rising, partial curve, poor fit]	inconclusive: 31.6 µM [side channel, rising, partial curve, poor fit]	inconclusive: 44.7 µM [falling, partial curve]	active: 28.2 µM	inconclusive: 25.1 µM [inhibitor, partial curve]	inconclusive: 17.8 µM [side channel, rising, partial curve, poor fit]	inconclusive: 28.2 µM [side channel, rising, partial curve, poor fit]	inconclusive: 25.1 µM [side channel]	inconclusive: 44.7 µM [side channel, falling, partial curve]	active: 21.7 µM	inconclusive: 50.1 µM [cytotoxic, single point]	–	–
CN(C)c1nc(=O)n(C2CCC(O)CC2)c(=O)n1C (configuration not stated)	inactive	–	–	–	inactive	–	–	–	–	–	–	–	–	inactive	inactive: 11.1%
